# Test results from the supplement of paper PMC11417369.
# ± gives the standard deviation of the averaged measurements. Some of the results follow.
# System: PfAP2-G AP2 domain (GST-tagged)
# Test: gcPBM binding intensity (ln(normalized median fluorescence intensity)); higher = stronger DNA binding
# How it was run: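 The highest Masliner-normalised natural-log median intensity across replicate spots of either probe orientation is reported as binding intensity. GST-tagged P. falciparum DNA-binding domains expressed in E. coli were applied for 1 h to an Agilent 4 × 180k array of primer-extended double-stranded 36-bp intergenic genomic probes plus negative controls, and bound protein was detected with Alexa488 anti-GST antibody and scanned at 488 nm.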
row,Sequence,gcPBM binding intensity (ln)
1,CCTGTAAATAAATATAAATACATATTTCTAATATAT [GTGCAC_negctrl_site21],9.53 ± 0.32
2,ACCTCATAATATTTAACACACAAAATTAAATGTATG [CACACA_site6898],10.09 ± 0.028
3,TTTCAAAAAAATAATGTGCACATTAGAAAATAAATA [GTGCAC_site9416],10.3 ± 0.33
4,TTATGTTGTAAATGCACACATACATAAACTCAGTTT [CACACA_site5639],10.1 ± 0.13
5,TAAATATTTTTAGATGCATGCAATAATTACCCAAAG [TGCATGCA_site636],10.2 ± 0.3
6,TTATTATTATTACTAGTGCATTAATTATATATGTAA,9.965 ± 0.064
7,TTTTTTTTTTCTGAAAGTACTAATTTCCTGGAGGAA [XGTACX_site759],10.9 ± 0.83
8,ACATATATTTAAAAATGTACTTACATATATTTTTTA [XGTACX_site6050],11 ± 0.69
9,TTTTATACATATTTTACACACTAAAATATACATATA [CACACA_site324],10.09 ± 0.057
10,GAAGTATTTATTTATGCATGCAAATATACAAAAAAA [TGCATGCA_site975],10 ± 0.23
11,ATATGTAGAAGTAATGCACACATATGTATATATATA [CACACA_site8796],9.935 ± 0.007
12,TTAAAATATAATATTCGTACTTATTCAAAAGAAAAA [XGTACX_site2122],10.8 ± 0.75
13,TTTCACTTTTTCCAAAGTACATATATAAAAATTAAT [XGTACX_site6947],10.9 ± 0.78
14,TTTTAATAAATATACACACACAAAAAAAAAAAAAAA [CACACA_site3971],9.93 ± 0.51
15,AGATTATAAAATTCTACACACATATATACATATATA [CACACA_site3485],9.835 ± 0.078
16,GACCAATTCAAATATGCACACAAATTTGAAAACGAT [CACACA_site9202],10.3 ± 0.23
17,ATATAAAAAAAAAAAAGTACACATAAACAAATGCAT [XGTACX_site4241],11.7 ± 1
18,AATATATAGAAACACACACACAAAAAAAAAAAAAAA [CACACA_site1326],9.95 ± 0.44
19,AATAAAAAGACATTCACACATATATATTATTTATAT [CACACA_site5936],9.7 ± 0.29

row,Sequence,gcPBM binding intensity (ln)
1,AATTAATAACAAAATAAACACACATATATAAATACA [CACACA_site8456],9.97 ± 0.057
2,ATAATGTAAAAGTAAACACACACATATATATATACA [CACACA_site8793],9.93 ± 0.071
3,GTCTTAAAAATTAAAACACACGTTCACTTTCATATT [CACACA_site5803],10.05 ± 0.021
4,TATATATATATATAATGTACATATATATAATATACA [XGTACX_site1552],10.9 ± 0.6
5,ATTTCTACTAAAAATACACACGATGATACAACGAAG [CACACA_site1755],10.18 ± 0.099
6,AAAGAATTTGCATATACACACAAAAAGATATATACA [CACACA_site6318],10.1 ± 0.14
7,CTAATGATCATATATACACACACACTAATAAAAAAA [CACACA_site9329],10.1 ± 0.16
8,TATATTTAGATATATACACACATTAGCATTTTCATA [CACACA_site6902],9.68 ± 0.18
9,CATAATACAGATAACACACACAATTATACATAAAAT [CACACA_site5742],10.04 ± 0.085
10,GTATATATTTTTATTTAATAATTTGTTTATTTATTC [CACACA_negctrl_site647],9.75 ± 0.042
11,CATACATATACATACAGTACATATTTTTTGTCAATT [XGTACX_site7357],10.9 ± 0.42
12,TTATATGGCTCCATTTGTACGCATCCATGTTTTTAT [XGTACX_site6590],11.5 ± 1
13,AGGAGGTCAGTTCACAGTACCCAGAAACTCTACGAG [XGTACX_site2006],11.1 ± 0.73
14,TCTTTTTTTTCTTTTTTTTTATTTAAATATCAAGTA [CACACA_negctrl_site1354],9.66 ± 0.23
15,AAAAAAAAAAAAAAAGCACACATCATATTATAATTC [CACACA_site3355],10.2 ± 0.18
16,AAAAAAACATAACAAAATGAAACAAAACAAAAAGAA [GTGCAC_negctrl_site577],9.88 ± 0.014
17,AGTTATTAAAAATGTGCATGCAATGGTTTCTCTTAA [TGCATGCA_site634],9.965 ± 0.092
18,GTATGTATATATATATGTACATACTGTTTATCGTTA [XGTACX_site6168],11.1 ± 0.47
19,ATATATTTCAAAGGGGTGCAGGCATATTTAAGCAAA,10.3 ± 0.4

row,Sequence,gcPBM binding intensity (ln)
1,TCTTTTTAATTTATATGTACTTATATTAATTATAAG [XGTACX_site7524],11.4 ± 0.97
2,TTTCTTAAAATGTTATGTACATATTTCGTTTCAAAG [XGTACX_site6102],11.3 ± 0.84
3,GTATTATAGTATAATACACACCCAAATATTAAAAAG [CACACA_site7404],10.315 ± 0.007
4,TGAGCTTCAACAATATGTACATAAAATATATTACAT [XGTACX_site4763],11.2 ± 0.54
5,TTAATAAAAGCCCATGCACACCTTAGAAAGTTTTAT [CACACA_site8003],10.1 ± 0.18
6,TTAGGAAAACAAAAATGTACGCATATATATTATTGA [XGTACX_site8288],11.5 ± 1
7,TTAAAAATAATATATTGTACACATACTTATTTTAAT [XGTACX_site1348],11.4 ± 0.88
8,CGTTATATATGTATTACATGCAATATATGTACGTAA [TGCATGCA_site274],11.3 ± 1
9,TAAATAATATCCCTTTGTACGTATTTTTTTTTATTA [XGTACX_site7303],11.5 ± 0.78
10,GAAATAAGTTAAAATAGTACGTAGTGTTCCTTAAGT [XGTACX_site6557],11 ± 0.46
11,GATGAATAAATCAAAGCACACATACACCCACATATA [CACACA_site7986],10.4 ± 0.38
12,TTCGTTTAAATCAAGTGTACATATTATATATAATAT [XGTACX_site7599],11.3 ± 0.87
13,ATTTTTTTTTTTTTTTTTTGGTTTTCTTTAGGAGTT [CACACA_negctrl_site1258],9.93 ± 0.29
14,GTGCATATACAAATATGTACTTAAACGTTTTTTTTT [XGTACX_site7362],11 ± 0.72
15,TTTTTCTTTTGATGTTGTACATATATATCATATAAT [XGTACX_site1189],11.3 ± 0.84
16,AAGACTTCTCCATATACACACACCAACAAATATAAA [CACACA_site2779],10.2 ± 0.23
17,GTTTATTCATCATACGGTACACATAAATAATATATA [XGTACX_site6931],11.1 ± 0.79
18,TTATTATTTCTTAGTAGTACTATATAATTTTTTTTT [XGTACX_site1847],11.2 ± 0.59
19,ATAGTATCTGGTAGCTGTACGAGTCGTAGAGAGTAG [XGTACX_site2546],11.3 ± 0.87
